Experimental data as given in PubChem BioAssay AID686971 (National Center for Advancing Translational Sciences (NCATS), 2013).
The campaign covered roughly 360,000 compounds. About 7,500 (2.1%) were called active. Inconclusive means that the source gave no clear call. Such entries were picked first, then a sample of the others. Calls follow the shape of the dose curve; as a rule, active = well fitted cell-killing curve with a large enough effect; inconclusive = small, poorly fitted or top-dose-only effect, or effect the other way, or another doubt; inactive = no such curve, though single readings can be large or run the other way. No potency is given beside an inconclusive call; the fits are too rough.
Potency is read from the fitted curve at half-maximal effect; tags tell the direction and shape of the fitted curve.

Assay: qHTS for induction of synthetic lethality in tumor cells producing 2HG: qHTS for the HT-1080-IDH1KD cell line;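 as to activity, negative = toxicity: 0% = DMSO wells and -100% = cell-free medium wells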
Conditions: HT-1080 IDH1 knockdown viability, ATP luminescence, 48 h; activity, negative = toxicity: at 46.1 µM (top of the series) unless noted
Procedure, shortened: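 HT-1080-IDH1KD cells (IDH1 knocked down), 750/well in RPMI with 5% FBS, treated with compound 48 h at 37 degrees C. Viability by CellTiter-Glo luminescence, normalised to DMSO and no-cell wells; concentration-response curves classed.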
With `C/C(=N\NC(=O)C(c1ccccc1)c1ccccc1)c1ccccn1` the Potency was active: 5.8 µM.
In the case of `COc1ccc(-c2cc(C)no2)cc1S(=O)(=O)N1CCCN(Cc2ccccc2Cl)C1`, the Potency is reported as inconclusive [cytotoxic, single point].
With `CC(=O)Oc1cc(C(=O)OCC(=O)NC23CC4CC(CC(C4)C2)C3)cc(OC(C)=O)c1OC(C)=O` the Potency was inconclusive [cytotoxic, single point].
In the case of `COc1cc(C(=O)NC(=S)Nc2ccc3ccccc3c2)cc(OC)c1OC`, the Potency is reported as inconclusive [cytotoxic, single point].
For `Cc1onc(-c2ccccc2)c1C(=O)N/N=C/c1cc(Br)c(Br)o1`, the Potency was inconclusive [cytotoxic, single point].
In the case of `COc1ccc(-c2c3c(nc4sc5c(Cl)nc(C)nc5c24)CCC3)cc1`, the Potency is reported as “inactive”.
For `O=C(c1ccco1)N1N=C(c2ccco2)CC1c1ccc(Cl)cc1Cl` (centres undefined), the Potency was inconclusive [cytotoxic, single point].
In the case of `CC1c2[nH]c3ccccc3c2CCN1C(=O)Nc1ccccc1` (centres undefined), the Potency is reported as inconclusive [cytotoxic, single point].
With `O=C(NNC(=O)c1cccc(Cl)c1)NNC(=O)c1cccc(Cl)c1` the Potency was inconclusive [cytotoxic, single point].
For `CC(=O)Nc1cc2c(cc1[N+](=O)[O-])-c1ccccc1C2=NO`, the Potency was inconclusive [rising, partial curve].
With `COc1ccc(C(=O)Nn2c(SCC(=O)c3ccc(Cl)cc3)nc3ccccc3c2=O)cc1` the Potency was inconclusive [cytotoxic, single point].
For `CCOC(=O)c1sc(NC(=O)CCN2CCN(C)CC2)c(C(=O)OCC)c1C`, the Potency was inconclusive [cytotoxic, single point].
With `Cc1ccc(C2=NN3C(C2)c2ccccc2OC32C(=O)Nc3ccccc32)cc1` (centres undefined) the Potency was inconclusive [cytotoxic, single point].
With `Cc1ccc(/C=N/NC(=O)c2nnn(-c3nonc3N)c2-c2cccs2)cc1` the Potency was inconclusive [cytotoxic, single point].
With `Cc1ccc(-c2cc3nc(NCCOc4ccccc4Cl)n(C)c(=O)c3s2)cc1` the Potency was “inactive”.
In the case of `FC(F)(F)c1cccc(NC(=S)Nc2ccc(Cl)c(Cl)c2)c1`, the Potency is reported as inconclusive [cytotoxic, single point].
For `CC(C)(C)OC(=O)NCCCC[C@H](NC(=O)c1nc[nH]c1C(=O)NC(c1ccccc1)c1ccccc1)C(=O)OC(C)(C)C`, the Potency was inconclusive [cytotoxic, partial curve].
For `COC(=O)c1cc(=O)nc2sc3cc(OC)ccc3n12`, the Potency was “inactive”.
For `CC(NC(=O)c1ccco1)c1nc(-c2ccc(C(C)(C)C)cc2)no1` (centres undefined), the Potency was “inactive”.
For `O=C(NC1CCCCC1)C(c1cccs1)N(Cc1cccs1)C(=O)c1ccco1` (centres undefined), the Potency was “inactive”.
In the case of `Cc1ccc(S(=O)(=O)NNC(=S)Nc2ccc(Cl)cc2)cc1`, the Potency is reported as inconclusive [cytotoxic, single point].
For `O=C(Nc1cccc(Cl)c1)NC1(C(=O)NCc2cccs2)CCCCC1`, the activity, negative = toxicity was inactive: -11.9% [at 9.24 µM].
With `COc1ccc(C(=O)N/N=C/c2cccc3cccnc23)cc1` the Potency was inconclusive [cytotoxic, partial curve].
In the case of `CCOc1ccc(-c2cc(C(=O)Nc3cc(OC)c(OC)c(OC)c3)[nH]n2)c(C)c1`, the Potency is reported as inconclusive [rising, single point].
In the case of `COc1ccc(OCCC(=O)OCC(=O)Nc2cccc(S(=O)(=O)N3CCCCC3)c2)cc1`, the Potency is reported as inconclusive [cytotoxic, single point].
For `COc1ccc(CC(=O)NNS(=O)(=O)c2ccccc2[N+](=O)[O-])cc1OC`, the Potency was “inactive”.
In the case of `Cc1nn(-c2ccccc2)c(Cl)c1CN(C(=O)CCl)c1ccc(Cl)cc1`, the Potency is reported as active: 5.17 µM.
In the case of `COc1ccc(CC(=O)Nc2cc(S(=O)(=O)Nc3ccc(OC)cc3)ccc2OC)cc1`, the Potency is reported as “inactive”.
In the case of `CN(C(=O)c1ccc(F)cc1)c1ccc(OCC(=O)Nc2ccccc2C(=O)O)cc1`, the Potency is reported as “inactive”.
With `COc1cccc(/C=N/NC(=O)c2ccc(OCc3cccc(Br)c3)cc2)c1` the Potency was inconclusive [cytotoxic, single point].
For `Cc1cc(NC(=O)c2ccc(NC(=O)C3CC3)cc2)no1`, the Potency was “inactive”.
For `CC(/C=C1\SC(=S)N(CCC(=O)Nc2ccc(O)cc2)C1=O)=C\c1ccccc1`, the Potency was inconclusive [cytotoxic, single point].
In the case of `CCc1cccc(C)c1NC(=O)CN1C(=O)NC(C)(CCC(C)C)C1=O` (centres undefined), the Potency is reported as “inactive”.
With `CCCc1cc(N2CCCC(C(=O)Nc3cc(Cl)ccc3OC)C2)n2ncnc2n1` (centres undefined) the Potency was “inactive”.
For `OC(c1ccc(Cl)c(F)c1)c1ncc(-c2cccc(F)c2)[nH]1` (centres undefined), the Potency was inconclusive [cytotoxic, single point].
For `Cc1ccc(-c2ccc(=O)n(Cc3cc(C)ccc3C)n2)cc1`, the Potency was inconclusive [cytotoxic, single point].
In the case of `Cn1nc([N+](=O)[O-])nc1Sc1ccc(Cl)cc1`, the Potency is reported as “inactive”.
With `Cc1nc2sccn2c(=O)c1S(=O)(=O)NCC(C)c1ccccc1` (centres undefined) the Potency was “inactive”.
For `COc1cc(-c2cc(C(=O)Nc3ccncc3)c3ccccc3n2)cc(OC)c1OC`, the Potency was “inactive”.
With `COc1ccc(OC)c(NC(=O)c2cc(-c3cc(Cl)ccc3O)n[nH]2)c1` the Potency was inconclusive [cytotoxic, single point].
For `O=C(COc1ccc2c(c1)OCO2)Nc1ccc(Cl)cn1`, the Potency was inconclusive [cytotoxic, partial curve].
For `CC1Nc2ncnc(N3CCc4ccccc4C3)c2N(Cc2ccccc2)C1=O` (centres undefined), the Potency was inconclusive [cytotoxic, single point].
With `C=C(C)c1cccc(C(C)(C)NC(=O)N(Cc2ccccc2)Cc2ccco2)c1` the Potency was inconclusive [cytotoxic, partial curve].
For `Cc1ccc(C)n1-c1ccc(C(=O)/C=C/N(C)C)cc1`, the Potency was inconclusive [cytotoxic, single point].
